Test results: PubChem BioAssay (Tox21)
Where “and” joins values, the source holds several entries; their conditions need not be identical. Identical values can stand only once. The inconclusive results got no clear call from the source; some entries with a clear call stand among them for comparison. For some of these results: A potency beside an inconclusive call is a rough fit, not a confirmed value. A structure can be active in one record and inactive in another. Calls of active or inactive are those of the source. Unless noted, calls follow the shape of the dose curve; as a rule, active = well fitted curve in the direction sought with a large enough effect in the repeat runs; inconclusive = weak or mixed curves; inactive = no such curve, though single readings can be large; an effect the other way counts as inactive or inconclusive.

Columns and labels:
[1] = qHTS RealTime-Glo MT Cell Viability Assay in HepG2 cells - 16 hour (AID 1224885); also: nearly all actives have a fitted effect of over 50% in size
Method in brief: (§1)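 Tox21 10K library screened in qHTS format on HepG2 cells carrying RealTime-Glo reagents. Compounds were added after a 5 h preincubation, and the luminescent signal from continuous culture was measured repeatedly during 40 h treatment.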

[2] = qHTS RealTime-Glo MT Cell Viability Assay in HEK293 cells - 24 hour (AID 1224886); also: nearly all actives have a fitted effect of over 50% in size
Method in brief: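 Luminescence generated by NanoLuc from substrate produced by living HEK293 cells served as the viability signal. Each value reflects the reading at its stated time point during continuous 40 h compound exposure at 37 C.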

[3] = qHTS RealTime-Glo MT Cell Viability Assay in HEK293 cells - 8 hour (AID 1224887); also: nearly all actives have a fitted effect of over 50% in size
Method in brief: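 Cells were seeded together with NanoLuc luciferase and a prosubstrate that viable cells reduce to a luciferase substrate. After a 5 h incubation at 37 C/5% CO2, compounds were added and luminescence was measured repeatedly during 40 h of treatment.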

[4] = A CellTox Green Cytotoxicity Assay to monitor cytotoxicity in HEK293 cells - 16 hour (AID 1224888); also: nearly all actives have a fitted effect of over 35% in size
Method in brief: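 Nonlytic real-time cytotoxicity: HEK293 + CellTox Green reagent plated, 5 h preincubation, pintool compound addition (23 nL in DMSO), 37 C for 40 h, fluorescence measured at successive time points.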

[5] = qHTS assay to identify small molecule antagonists of the androgen receptor (AR) signaling pathway using the MDA cell line in the presence of 0.5 nM R1881 - cell viability counter screen (AID 1259242); also: nearly all actives have a fitted effect of over 45% in size
Method in brief: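 Counter screen for cytotoxicity run in the same wells as the AR antagonist reporter screen: MDA-kb2 cells were treated 16 hr with test compounds and 0.5 nM R1881, then live-cell protease activity was measured by fluorescence.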

[6] = qHTS assay to identify small molecule agonists of the sonic hedgehog signaling (Shh) pathway - cell viability counter screen (AID 1259366); also: nearly all actives have a fitted effect of over 50% in size
Method in brief: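 After a 4hr attachment at 37C, NIH/3T3 cells bearing an integrated Gli1-driven luciferase reporter were dosed with compounds. Treatment lasted 24hr, with the final hour including CellTiter-Fluor for a fluorescence viability measurement.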

[7] = qHTS assay to identify small molecule antagonists of the sonic hedgehog signaling (Shh) pathway (AID 1259369; calls by dose curve; also: nearly all actives have a fitted effect of over 45% in size)
Method in brief: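 3T3Gli1-Luc, conditioned-medium-stimulated, 24hr cpd, 37C/5% CO2; Gli1-driven firefly Luc luminescence after 30min RT with luciferase reagent. Cells plated 4hr before cpd.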

[8] = biological target: Estrogen receptor beta (Homo sapiens) (UniProt Q92731); experiment: qHTS assay to identify small molecule agonists of the estrogen receptor beta (ER-beta) signaling pathway (AID 1259377; active = well fitted activation curve with a large enough effect in the signal ratio in the repeat runs, not every such curve was filed as active; inconclusive = weak or mixed curves, or effect the other way; the % refers to the signal ratio); settings: ER-beta-UAS-bla HEK293T, beta-lactamase FRET ratio, 16 h; series mostly up to 92.4 µM
Method in brief: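 In HEK293T cells bearing a UAS-beta-lactamase reporter under ER-beta control, DMSO-delivered compounds were incubated for 16 hr at 37C. Activity was detected as fluorescence 2 hours after LiveBLAzer B/G FRET substrate addition.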

[9] = qHTS assay to identify small molecule agonists of the androgen receptor (AR) signaling pathway in the presence of an antagonist - cell viability counter screen (AID 1259379); also: nearly all actives have a fitted effect of over 25% in size
Method in brief: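 Cells: MDA-kb2 (MMTV-luc, AR and GR elements), 3,000/well, 5 hr settle. Added: nilutamide 3.0uM final, then compounds (15 conc.). Incubation: 16 hr, 37C, no CO2. Read-out: CellTiter-Fluor, 1 hr, fluorescence.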

[10] = qHTS RealTime-Glo MT Cell Viability Assay in HepG2 cells - 0 hour (AID 1224889); also: nearly all actives have a fitted effect of over 50% in size
Method in brief: as §1

[11] = A CellTox Green Cytotoxicity Assay to monitor cytotoxicity in HepG2 cells - 8 hour (AID 1224890); also: nearly all actives have a fitted effect of over 45% in size
Method in brief: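 Read-out is fluorescence of a cyanine dye excluded from live cells that stains DNA of dead HepG2 cells, with signal proportional to cytotoxicity. Plates were read at 0, 8, 16, 24, 32 and 40 h after compound addition.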

[12] = qHTS assay to identify small molecule HDAC inhibitors (AID 1259364); also: nearly all actives have a fitted effect of over 45% in size
Method in brief: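 Luminescence from a cell-permeant luminogenic class I/II HDAC substrate reports endogenous deacetylase activity in intact HCT-116 cells treated with compounds for 2 h.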

[13] = qHTS assay to identify small molecule antagonists of the sonic hedgehog signaling (Shh) pathway - cell viability counter screen (AID 1259367); also: nearly all actives have a fitted effect of over 55% in size
Method in brief: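 Cells: 3T3 Gli1-Luc, 2,000/well, 4 hr pre-incubation. Compounds in DMSO, then conditioned medium. Incubation 24 hr, 37C, 5% CO2. CellTiter-Fluor at 23 hr, 1 hr, fluorescence.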

[14] = biological target: Estrogen receptor beta (Homo sapiens) (UniProt Q92731); experiment: qHTS assay to identify small molecule antagonists of the estrogen receptor beta (ER-beta) signaling pathway (AID 1259378; active = well fitted inhibition curve with a large enough effect in the signal ratio in the repeat runs, not every such curve was filed as active; inconclusive = weak or mixed curves, or effect the other way; inactive = no such curve, though single readings can be large or run the other way; the % refers to the signal ratio); settings: ER-beta-UAS-bla HEK293T, beta-lactamase FRET ratio, 16 h; series mostly up to 92.4 µM
Method in brief: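 Antagonist mode: compounds added to beta-lactamase reporter HEK293T ER-beta-UAS cells stimulated with E2 (1nM final), 16 hr at 37C. LiveBLAzer B/G FRET substrate, 2 hours room temperature, fluorescence read-out.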

[15] = qHTS assay to identify small molecule antagonists of the estrogen receptor alpha (ER-alpha) signaling pathway using the BG1 cell line in the presence of 0.1 nM 17-beta-estradiol - cell viability counter screen (AID 1259241); also: nearly all actives have a fitted effect of over 40% in size
Method in brief: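 Measures cytotoxicity alongside the ER-alpha antagonist readout: VM7Luc4E2 cells, charcoal-stripped serum, 0.1 nM 17beta-estradiol final, 22 hr compound incubation at 37C, CellTiter-Fluor fluorescence.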

[16] = qHTS assay to identify small molecule HDAC inhibitors - cell viability counter screen (AID 1259365); also: nearly all actives have a fitted effect of over 50% in size
Method in brief: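 Following a 2hr exposure of overnight-plated wild-type HCT-116 cells to DMSO-delivered compounds, CellTiter-Glo was added and luminescence recorded after 30min at room temperature.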

[17] = biological target: Estrogen receptor (Homo sapiens) (UniProt P03372); experiment: qHTS assay to identify small molecule antagonists of the estrogen receptor alpha (ER-alpha) signaling pathway using the BG1 cell line in the presence of 0.1 nM 17-beta-estradiol (AID 1259244); also: nearly all actives have a fitted effect of over 50% in size
Method in brief: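 Cells: VM7Luc4E2, endogenous ER-alpha, 4x ERE-luc stable. Pre-culture 5 d, phenol red-free, charcoal-stripped FBS. Plated 24 h, compound + E2 0.1 nM final, 22 h 37C/5% CO2. Readout ONE-Glo luminescence.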

[18] = qHTS assay to identify small molecule phospholipidosis (PLD) inducers (AID 1259344; active = well fitted curve in the direction sought with a large enough effect; inconclusive = small, poorly fitted or top-dose-only effect, or another doubt; inactive = no such curve, though single readings can be large; an effect the other way counts as inactive or inconclusive)
Method in brief: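 Phospholipidosis is scored by imaging LipidTOX-stained pits in HepG2 cells exposed to compound for 24 h at 37 C; pit counts and integrated intensities per well and per cell serve as outputs.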
Potency is read from the fitted curve at half-maximal effect; tags tell the direction and shape of the fitted curve or compound fluorescence and quenching.

Sequence of UniProt Q92731 (Q92731 whole entry, looked up): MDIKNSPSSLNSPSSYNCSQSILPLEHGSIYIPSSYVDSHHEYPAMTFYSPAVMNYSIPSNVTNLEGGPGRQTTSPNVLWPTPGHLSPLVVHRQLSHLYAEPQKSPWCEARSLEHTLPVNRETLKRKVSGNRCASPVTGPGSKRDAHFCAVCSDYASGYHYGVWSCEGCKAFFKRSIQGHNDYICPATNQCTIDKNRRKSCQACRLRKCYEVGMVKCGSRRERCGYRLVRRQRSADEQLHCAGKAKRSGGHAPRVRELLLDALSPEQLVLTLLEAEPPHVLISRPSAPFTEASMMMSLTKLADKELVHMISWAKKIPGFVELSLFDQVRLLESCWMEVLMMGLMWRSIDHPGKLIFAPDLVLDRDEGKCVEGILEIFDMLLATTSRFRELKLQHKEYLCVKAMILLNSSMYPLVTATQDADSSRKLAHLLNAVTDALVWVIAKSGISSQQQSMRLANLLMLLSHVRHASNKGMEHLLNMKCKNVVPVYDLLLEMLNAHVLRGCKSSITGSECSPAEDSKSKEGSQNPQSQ
Sequence of UniProt P03372 (P03372 whole entry, looked up): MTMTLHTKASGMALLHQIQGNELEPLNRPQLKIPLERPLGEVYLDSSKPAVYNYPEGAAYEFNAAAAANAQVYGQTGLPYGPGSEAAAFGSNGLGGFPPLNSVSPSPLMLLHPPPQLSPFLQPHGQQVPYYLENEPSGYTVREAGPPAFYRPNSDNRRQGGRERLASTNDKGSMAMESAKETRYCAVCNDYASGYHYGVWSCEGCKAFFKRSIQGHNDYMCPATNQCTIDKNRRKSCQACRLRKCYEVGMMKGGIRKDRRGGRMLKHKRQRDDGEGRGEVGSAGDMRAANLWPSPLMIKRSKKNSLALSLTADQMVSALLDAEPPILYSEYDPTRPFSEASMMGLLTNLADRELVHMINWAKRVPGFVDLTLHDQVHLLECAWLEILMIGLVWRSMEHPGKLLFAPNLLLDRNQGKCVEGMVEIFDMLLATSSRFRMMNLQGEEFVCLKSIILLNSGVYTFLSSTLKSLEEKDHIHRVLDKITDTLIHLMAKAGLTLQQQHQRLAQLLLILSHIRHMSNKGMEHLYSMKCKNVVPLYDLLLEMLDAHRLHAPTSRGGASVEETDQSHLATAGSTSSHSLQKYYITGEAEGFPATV

Row | SMILES | Potency [1] | Potency [2] | Potency [3] | Potency [4] | Potency [5] | Potency [6] | Potency [7] | Potency [8] | Potency [9] | Potency [10] | Potency [11] | Potency [12] | Potency [13] | Potency [14] | Potency [15] | Potency [16] | Potency [17] | Potency [18]
1 | Clc1ccc(C(c2ccc(Cl)cc2)C(Cl)(Cl)Cl)cc1 | inconclusive: 55.3 µM [cytotoxic, single point] | active: 39.2 µM and active: 43.6 µM and inconclusive: 26.8 µM [cytotoxic, single point] | inconclusive: 43.6 µM [cytotoxic, partial curve] and inconclusive: 26.8 µM [cytotoxic, single point] | inconclusive: 55.3 µM [activator, single point] | inconclusive: 69.1 µM [cytotoxic, single point] | active: 48.9 µM | active: 27.5 µM | inconclusive: 69.1 µM [cytotoxic, single point] and inconclusive: 77 µM and inactive | inconclusive: 69.1 µM [cytotoxic, single point] | – | – | – | – | – | – | – | – | –
2 | O=c1ssc(Cl)c1Cl | active: 21.9 µM | active: 15.5 µM | active: 17.4 µM | active: 38.9 µM | active: 54.5 µM | – | inconclusive: 24.3 µM [inhibitor, single point] | inconclusive: 68.6 µM | active: 68.6 µM | active: 43.6 µM | active: 24.5 µM | inconclusive: 48.6 µM [inhibitor, partial curve] | inconclusive: 77 µM [cytotoxic, single point] | inconclusive: 54.5 µM [rising, partial curve] | – | – | – | –
3 | Cc1cc(N=Nc2ccccc2C)ccc1N | inconclusive: 49 µM [cytotoxic, partial curve] and inconclusive: 49 µM [cytotoxic, partial curve, poor fit] | active: 21.9 µM and active: 19.5 µM | – | inconclusive: 54.9 µM [activator, single point] | inconclusive: 30.6 µM [cytotoxic, partial curve] and inconclusive: 54.5 µM [cytotoxic, partial curve] | – | active: 19.3 µM and inactive | – | – | inconclusive: 38.9 µM [cytotoxic, partial curve] | – | – | – | – | inconclusive: 27.3 µM [cytotoxic, partial curve] and active: 24.3 µM | inconclusive: 61.1 µM [cytotoxic, partial curve, poor fit] | – | –
4 | C=CCC1=C(C)C(OC(=O)C2C(C=C(C)C)C2(C)C)CC1=O (centres undefined) | inconclusive: 49 µM [cytotoxic, partial curve, poor fit] | active: 23.2 µM | – | inconclusive: 51.9 µM [activator, single point] | – | – | active: 16.3 µM | – | – | – | inconclusive: 54.9 µM [activator, single point] | – | – | – | inconclusive: 61.1 µM [cytotoxic, partial curve, poor fit] | – | inconclusive: 19.4 µM [inhibitor] | inconclusive: 11.2 µM [activator, single point]
5 | C[CH2][Hg][S]c1ccccc1C(=O)O | active: 2.45 µM and active: 2.13 µM | active: 1.1 µM and active: 1.34 µM | – | inconclusive: 12.3 µM [activator, single point] and active: 4.77 µM | active: 17.2 µM and active: 11.9 µM | active: 1.72 µM and active: 1.19 µM | inconclusive: 7.5 µM [inhibitor, single point] | inconclusive: 1.93 µM [rising, full curve] | – | – | active: 7.76 µM and active: 2.39 µM | – | active: 1.93 µM and active: 5.96 µM | – | active: 21.7 µM and active: 5.96 µM | inconclusive: 68.6 µM [cytotoxic, single point] | – | –
